{"source": "PubChem BioAssay AID485344", "about": "(National Center for Advancing Translational Sciences (NCATS), 2010)", "note": "The whole screen tested about 340,000 compounds, of which about 6,900 (2%) were called active. Cut-off read from the data, not from the text of the source: active = inhibition above about 30%; inactive = below that, where a call was filed. Only a part is listed here, and it is no random draw. The source gives no active or inactive call for entries shown without one."}
{"molecular_target": "D(2) dopamine receptor (Homo sapiens) (UniProt P14416)", "sequence (P14416 whole entry, looked up)": "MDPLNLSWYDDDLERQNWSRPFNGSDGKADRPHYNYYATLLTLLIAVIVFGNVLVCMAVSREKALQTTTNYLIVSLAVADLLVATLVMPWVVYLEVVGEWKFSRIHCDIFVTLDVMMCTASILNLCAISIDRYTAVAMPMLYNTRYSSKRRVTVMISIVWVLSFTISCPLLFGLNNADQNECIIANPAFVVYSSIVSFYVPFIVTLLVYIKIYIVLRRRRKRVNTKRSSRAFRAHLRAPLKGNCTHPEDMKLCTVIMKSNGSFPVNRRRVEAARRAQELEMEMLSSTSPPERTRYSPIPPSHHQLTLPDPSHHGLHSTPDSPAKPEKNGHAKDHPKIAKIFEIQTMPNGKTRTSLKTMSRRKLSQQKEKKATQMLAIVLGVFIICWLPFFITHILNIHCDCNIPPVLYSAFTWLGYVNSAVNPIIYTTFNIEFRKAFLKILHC", "assay": "HTS Assay for Allosteric Antagonists of the Human D2 Dopamine Receptor: Primary Screen for Antagonists; note: 0% is about no effect", "settings": "HEK293 TREx D2 cells, calcium flux, dopamine EC80; at 10 µM; stronger effect = higher value", "outline": "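Compounds are added to dye-loaded, induced HEK293 T-REx cells coupled to calcium release via D2; after a 3 min kinetic read an EC80 dopamine stimulus is given and fluorescence is recorded for 3 more min.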"}
{"molecule": "COc1ccc(/C=C/C(=O)O)cc1COc1cccc(C)c1", "inhibition": "active: 40.3%"}
{"molecule": "CCC1=C(c2ccc(C)cc2)S(=O)(=O)N=C1N1CCC(C(=O)Nc2ccccc2C(=O)OC)CC1", "inhibition": "-0.982%"}
{"molecule": "Cc1cn2c(=O)cc(COc3ccc(NC(=O)c4ccc(C(C)(C)C)cc4)cc3)nc2s1", "inhibition": "15.3%"}
{"molecule": "COc1ccc(CNC(=O)CCc2c(C)nn(-c3ccc(N4CCOCC4)nn3)c2C)c(OC)c1", "inhibition": "-5.41%"}
{"molecule": "CN(C)c1ccc(C(CNC(=O)c2ccc(C(C)(C)C)cc2)N2CCCC2)cc1", "note": "(configuration not stated)", "inhibition": "14.4%"}
{"molecule": "Cc1cccc(C(=O)Nc2ccc(O)c3c(=O)cc(-c4ccccc4Cl)oc23)c1", "inhibition": "active: 30.9%"}
{"molecule": "Cc1cccc(NC(=O)C2CCCN2S(=O)(=O)c2cccc3nsnc23)c1C", "note": "(configuration not stated)", "inhibition": "3.22%"}
{"molecule": "Cc1cc(O)c(C(c2ccccc2)N2CCC(C)CC2)c(=O)n1Cc1ccco1", "note": "(configuration not stated)", "inhibition": "0.61%"}
{"molecule": "Cc1nn(-c2ccc(N3CCCC3)nn2)c(C)c1CCC(=O)N1CCN(c2ccccc2F)CC1", "inhibition": "14.5%"}
{"molecule": "O=C(C1CCC1)N1CCc2cc(S(=O)(=O)NCCc3ccccc3)ccc21", "inhibition": "-8.78%"}
{"molecule": "CCOC(=O)CCc1c(C)nc2c(c(C)nn2-c2ccc(C)cc2)c1C", "inhibition": "1.31%"}
{"molecule": "COc1ccccc1NC(=O)c1ccc2c(c1)nnn2C", "inhibition": "active: 71%"}
{"molecule": "NC(=O)C1CCCNC1", "note": "(configuration not stated)", "inhibition": "active: 46.6%"}
{"molecule": "COc1ccc(-c2nc(SCC(=O)NCc3ccccc3Cl)n[nH]2)cc1", "inhibition": "-9.38%"}
{"molecule": "Cc1ccc(Cn2c(CCNC(=O)C(C)C)nc3ccccc32)cc1", "inhibition": "17.7%"}
{"molecule": "COc1ccc(CNC(=O)CCNS(=O)(=O)c2ccc3c(c2)CCCC(=O)N3)cc1", "inhibition": "-2.64%"}
{"molecule": "Cc1ccc(Cl)cc1N(C)C(=O)C1CCCN(c2ncnc3onc(-c4ccc(F)cc4)c23)C1", "note": "(configuration not stated)", "inhibition": "7.95%"}
{"molecule": "Clc1cccc(-n2cc(-c3ccccc3)c3c(NC4CCCC4)ncnc32)c1", "inhibition": "7.01%"}
{"molecule": "COc1ccccc1NC(=O)CSc1nc2c(oc3ccccc32)c(=O)n1Cc1ccco1", "inhibition": "15.3%"}
{"molecule": "COc1ccc(NC(=O)C2CCCN(S(=O)(=O)c3cccc4nonc34)C2)cc1Cl", "note": "(configuration not stated)", "inhibition": "4.52%"}
{"molecule": "Cc1ccc(-c2nnc3c4ccccc4c(C)nn23)cc1NC(=O)c1cccc(Br)c1", "inhibition": "3.38%"}
{"molecule": "O=C(NCC(c1ccco1)N1CCCC1)c1cc2ccccc2s1", "note": "(configuration not stated)", "inhibition": "active: 35.3%"}
{"molecule": "O=C(NCc1cccc(Cl)c1)NCc1noc2ccccc12", "inhibition": "11.1%"}
{"molecule": "CCCCN(CC)C(=O)CCCn1c(=O)c2cccn2c2ccccc21", "inhibition": "8.66%"}
{"molecule": "Cc1nn(-c2ccccc2)c(Cl)c1C(=O)NCc1cccs1", "inhibition": "active: 44.5%"}
{"molecule": "Cc1ccc(CNC(=O)CN2C(=O)CC(c3ccc(C)c(C)c3)=Nc3ccccc32)cc1", "inhibition": "-10.9%"}
{"molecule": "Clc1cccc2c1CCN(Cc1nc(-c3cnccn3)no1)C2", "inhibition": "active: 40%"}
{"molecule": "Cc1cccc(CN2CCC(CNc3ncnc4onc(-c5ccc(Cl)cc5)c34)CC2)c1", "inhibition": "1.56%"}
{"molecule": "CCCOc1ccc(C2c3c(oc4ccc(F)cc4c3=O)C(=O)N2CCc2ccc(OC)cc2)cc1", "note": "(configuration not stated)", "inhibition": "15.3%"}
{"molecule": "Cc1ccc(CSc2nc3cccnc3n2Cc2ccc(C(=O)NC3CCCCC3)cc2)cc1", "inhibition": "21%"}
{"molecule": "CC(=O)Nc1nonc1-c1nnc(SCC(=O)Nc2ccc(C)c(Cl)c2)n1C", "inhibition": "3.15%"}
{"molecule": "CC(C)(C)C1CCC(OCC(O)CN2CCN(c3ccccc3)CC2)CC1", "note": "(configuration not stated)", "inhibition": "active: 73.6%"}
{"molecule": "CCOc1ccc2c(c1)c(=O)c(S(=O)(=O)c1ccc(C)cc1)cn2Cc1ccccc1Cl", "inhibition": "-3.46%"}
{"molecule": "CCOC(=O)c1cnc(N2CCN(c3ccc(OC)cc3)CC2)c2ccccc12", "inhibition": "-19.3%"}
{"molecule": "CCN1CCN(c2ncnc3c2cnn3-c2cc(Cl)ccc2C)CC1", "inhibition": "-19.5%"}
{"molecule": "CCOC(=O)c1c(S(=O)(=O)NCC(=O)N(C)Cc2ccccc2)c(C)n(C)c1C", "inhibition": "-7.27%"}
{"molecule": "COc1ccccc1N1CCN(c2ncnc3c2c(-c2ccccc2)cn3-c2cccc(C)c2)CC1", "inhibition": "6.88%"}
{"molecule": "CC1CCN(S(=O)(=O)c2csc(C(N)=O)c2)CC1", "inhibition": "1.22%"}
{"molecule": "CC(O)(CS(=O)(=O)c1ccc(Br)cc1)c1ccccc1", "note": "(configuration not stated)", "inhibition": "active: 31.2%"}
{"molecule": "O=C(Cc1csc(Nc2nc(=S)[nH]c3ccccc23)n1)NCCCN1CCN(c2ccccc2F)CC1", "inhibition": "active: 67.4%"}
{"molecule": "O=C(Nc1ccccc1)c1ccc(CN2CCc3ccccc3C2)cc1", "inhibition": "active: 54.2%"}
{"molecule": "CSc1ccc(CCNC(=O)c2c(C)oc3ncn(C)c(=O)c23)cc1", "inhibition": "-9.01%"}
{"molecule": "COc1ccc(Br)cc1CN1CCN(Cc2c[nH]c3ccccc23)CC1", "inhibition": "active: 86.8%"}
{"molecule": "Cc1cccc(Cn2c(Cc3ccccc3)nc3ccccc32)c1", "inhibition": "-2.24%"}
{"molecule": "COc1ccc(CCN2CCC(CNC(=O)c3cnn(-c4cccc(Cl)c4)c3C3CCN(C(=O)OC(C)(C)C)CC3)CC2)cc1", "inhibition": "15.1%"}
{"molecule": "COc1ccc(N2CCN(C(=O)C3CCN(c4nc5ccc(C)cc5[nH]4)CC3)CC2)cc1", "inhibition": "2.48%"}
{"molecule": "CCOC(=O)c1ccc(NC(=O)CCc2nc3cccnc3n2Cc2cccs2)cc1", "inhibition": "17.5%"}
{"molecule": "Cc1cccc(NC(=O)/C(C#N)=C/c2ccc(C)o2)c1", "inhibition": "-17%"}
{"molecule": "Cc1ccc(S(=O)(=O)c2cn(CC(=O)Nc3ccc(Cl)cc3)c3ccc(F)cc3c2=O)cc1C", "inhibition": "-2.65%"}
{"molecule": "O=C(NCCCN1CCCCC1)c1ccc2c(c1)NC(=O)C(N1CCCCC1)S2", "note": "(configuration not stated)", "inhibition": "active: 46.9%"}
{"molecule": "CCOC(=O)c1c(NC(=O)c2cc(CC)on2)sc(C(C)=O)c1C", "inhibition": "-4.05%"}
{"molecule": "COc1cc(C2CC(=O)Nc3c2c(=O)n(C)c2ncnn32)cc(OC)c1OC", "note": "(configuration not stated)", "inhibition": "17.5%"}
{"molecule": "COC(=O)c1c(CSc2ccc(Cl)cc2)noc1C(=O)NCc1ccco1", "inhibition": "active: 37.6%"}
{"molecule": "CCC(=O)Nc1cccc(-c2nc3cc(C)ccc3o2)c1", "inhibition": "4.05%"}
{"molecule": "O=C(O)/C=C/C(=O)N1CCN(S(=O)(=O)c2cccc(C(F)(F)F)c2)CC1", "inhibition": "active: 31.1%"}
{"molecule": "CC(=O)c1ccc(N2CCN(c3ccc4cc(S(=O)(=O)N5CCC(C)CC5)ccc4n3)CC2)cc1", "inhibition": "5.62%"}
{"molecule": "Cc1cccc2sc(N(CCN(C)C)C(=O)/C=C/c3cccs3)nc12", "inhibition": "active: 31.6%"}
{"molecule": "CC(=O)Nc1nonc1-c1nnc(SCc2ccccc2)n1C", "inhibition": "-5.14%"}
{"molecule": "COc1ccc(-n2nc(C(=O)Nc3cc(C)ccn3)c3c4ccccc4n(C)c3c2=O)cc1Cl", "inhibition": "26.5%"}
{"molecule": "CCc1ccc(NC(=O)Cn2c(=O)c3cc(Cl)ccc3n3nncc23)cc1", "inhibition": "3.3%"}
{"molecule": "CCOc1ccc(-c2cc(C(=O)NCCc3ccc(OC)c(OC)c3)[nH]n2)cc1", "inhibition": "3.03%"}
{"molecule": "O=c1c2oc3ccccc3c2n(Cc2cccc(F)c2)c(=O)n1Cc1ccc2c(c1)OCO2", "inhibition": "2.21%"}
